Data taken from ChEMBL document CHEMBL1201862, “PubChem BioAssay data set” (2004).
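All cell lines were grown in 96-well plates and treated with compound for 48 hours. The concentration for 50% growth inhibition is given as GI50.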 Active and inactive are the calls of the source. No stated cut-off is given here; in the data, active = GI50 up to about 1.1 µM and inactive = higher.

What follows are molecules tested on NCI-H322M (assay: NCI anticancer screen, dose series, 48 h).

Row | Structure (SMILES) | GI50
1 | CC(=O)O[C@H]1CC2C(C3CCC(C(C)CCC(=O)O)[C@]31C)[C@H](OC(C)=O)C[C@@H]1CC3(CC[C@]21C)OOC1(CC[C@]2(C)C4C[C@H](OC(C)=O)[C@]5(C)C(C(C)CCC(=O)O)CCC5C4[C@H](OC(C)=O)C[C@@H]2C1)OO3 (stereo not given in full) | inactive: 3.66 µM
2 | O=[N+]([O-])c1ccc(N/N=C2/CC3=C2CCCCCCCCCC3)c([N+](=O)[O-])c1 | inactive: > 100 µM
3 | O=Nc1c(-c2c(O)[nH]c3ccc(I)cc23)[nH]c2ccccc12 | inactive: 4.03 µM
4 | C[C@@H]1CC[C@@H]2[C@@H](C1)O[C@@H]([C@@H](C)OCc1ccccc1)SC2(C)C | inactive: 27.5 µM
5 | O=C1C[C@H]2[C@H](c3ccc(Br)cc3)[C@H]3C(=O)c4ccccc4NC(=O)[C@@H]3[C@@]2(O)c2ccccc2N1 | inactive: 17 µM
6 | CC(C)=C[C@H]1CCC2(OCCO2)[C@]1(C)CO | inactive: > 100 µM
7 | NC(=O)C#CC#CC#CCO | inactive: 10.9 µM
8 | N=C(N)NS(=O)(=O)c1ccc(NC(=O)c2cccc3c(Nc4ccc(S(N)(=O)=O)cc4)c4ccccc4nc23)cc1 | inactive: > 100 µM
9 | NC(=O)NCc1c(C(N)=O)ncn1Cc1ccccc1 | inactive: > 100 µM
10 | Cc1cc2c(O)c(c1)CN(Cc1ccccc1)Cc1cc(C)cc(c1O)CN(Cc1ccccc1)Cc1cc(C)cc(c1O)CN(Cc1ccccc1)C2 | inactive: > 100 µM
11 | Cc1cc(NS(=O)(=O)c2ccc(NC(=O)c3cccc4c(NNc5ccc(S(N)(=O)=O)cc5)c5ccccc5nc34)cc2)no1 | inactive: 51.4 µM
12 | COc1ccc2cc3c4cc5c(cc4cc[n+]3cc2c1OC)OCO5 | inactive: 39.9 µM
13 | CC(=O)O[C@@H]1[C@@H](C)[C@]2(CC(c3ccoc3)OC2O)C2CCC3O[C@]3(C)[C@]2(C)[C@@H]1OC(C)=O (stereo not given in full) | inactive: > 100 µM
14 | CC1CNC(c2cccc(-c3nc(-c4cccc(C5=NC(C)CN5)c4)nc(N(C)C)n3)c2)=N1 (stereo not given) | active: 0.719 µM
15 | C/C(=C\c1ccccn1)c1ccccn1 | inactive: 86.9 µM
16 | N#Cc1c(N)nc(-c2ccc(Cl)cc2)c2c1-c1ccccc1S(=O)(=O)CC2 | inactive: > 100 µM
17 | O=C1/C(=c2\c3ccccc3n3c(=O)c4ccccc4nc23)Nc2ccccc21 [CANDIDINE] | inactive: > 100 µM
18 | C/C(=N/NC(=O)C[N+](C)(C)C)C(CN(C)C)C(=O)Nc1ccccc1 (stereo not given) | inactive: > 100 µM
19 | O=[N+]([O-])c1ccc(C2N3CCCCC3[C@H]3CCCCN23)cc1 (stereo not given in full) | inactive: > 100 µM
20 | ClCc1ccc(C2OCCO2)cc1 | inactive: 21.6 µM
21 | COC(=O)C(Cc1nc2ccc(Cl)cc2nc1O)/C(=N\N)C(=O)Nc1cc(C)c(Cl)cc1S(=O)(=O)O (stereo not given) | inactive: > 100 µM
22 | O=C(O)c1ccc(Nc2nc3ccccc3nc2C(=O)O)cc1 | inactive: > 100 µM
23 | Nc1nc(N)c2c3c(cnc2n1)CC(c1ccccc1)CC3 (stereo not given) | inactive: 18.5 µM

Row | Structure (SMILES) | GI50
24 | CCCCCCCC(CC(=O)NC(CO)C(=O)NC(CO)CC(C)C)OC(=O)CC(CCCCCCC)OC(=O)CC(CCCCCCC)OC1OC(C)C(O)C(OC2OC(C)C(O)C(O)C2O)C1O (stereo not given) | inactive: 12.3 µM
25 | Cc1ccc(C2CC(c3cccc([N+](=O)[O-])c3)=Nc3ccccc3S2)cc1 (stereo not given) | inactive: > 55.2 µM
26 | O=C1NC(=S)N/C1=C\c1cccs1 | inactive: > 100 µM
27 | CCCCCCCC(=O)OC[n+]1ccc(-c2c(COC(=O)NC(C)C)c(COC(=O)NC(C)C)c3n2CCC3)cc1 | inactive: > 100 µM
28 | N#CC(c1nc2ccccc2nc1Cl)S(=O)(=O)c1ccccc1 (stereo not given) | inactive: > 100 µM
29 | CCc1cc2c(c3c1CCCC3=O)CC1(Cc3ccc(C(=O)OC)cc3C1)C2 (stereo not given) | inactive: 73.1 µM
30 | CCCCC[C@H](O)[C@H](C)C=C1SCCCS1 | inactive: > 100 µM
31 | O=C(Nc1ccccc1)c1cccc([N+](=O)[O-])c1 | inactive: > 100 µM
32 | COc1cc2c(cc1OC)-c1cc3cc(OC)c(OC)cc3c(C)[n+]1CC2.O=C([O-])CS(=O)(=O)O | inactive: > 100 µM
33 | CC(C)(CN1CCCCC1)C(=O)CC(SCCS(=O)(=O)O)c1ccc(Cl)c(Cl)c1 (stereo not given) | inactive: 10 µM
34 | C[n+]1cccc2c(=O)c3ccccc3oc21 | inactive: > 100 µM
35 | CN(C)/C=N\c1c(Br)cc(Br)c2nonc12 | inactive: > 100 µM
36 | O=C(N/N=C(COc1ccc(Cl)cc1)\N=C\c1ccncc1)c1ccncc1 | inactive: > 100 µM
37 | CCCOC(=O)NC(C)C(=O)NC(CCC(=O)NC(CCCC(N)C(=O)O)C(=O)NC(C)C(=O)O)C(=O)O (stereo not given) | inactive: 19.9 µM
38 | COC(=O)c1nc(-c2ccc3c(n2)C(=O)C(=N)C(OC)=C3O)c(N)c(-c2ccc(OC)c(OC)c2O)c1C | active: 0.809 µM
39 | COc1cc(C2S/C(=C/c3ccccc3)C(=O)N2c2cccc(Cl)c2)cc(OC)c1OC (stereo not given) | inactive: 43 µM
40 | COc1cc(CSc2ccc(O)cc2)cc(O)c1O | inactive: 39.7 µM
41 | CCCC(=O)OC1C(C2COC(C)(C)O2)OC2OC(C)(C)OC21 (stereo not given) | inactive: > 100 µM
42 | C=C1C(=O)C23C(CC(OC(C)=O)C1[C@@H]2OC(C)=O)C1(C)C(OC(C)=O)CCC(C)(C)C1C[C@@H]3OC(C)=O (stereo not given in full) | inactive: 1.73 µM
43 | COC(=O)CCc1cc(O)c2c(c1)C(C(=O)OC)C(c1ccc(O)c(O)c1)O2 (stereo not given) | inactive: 44.1 µM
44 | O=C(Nc1ccc(Cl)c(Cl)c1)N1N=C2c3ccccc3CCC2C1c1ccc(Cl)cc1 (stereo not given) | inactive: > 100 µM
45 | O=c1[nH]nc(Nc2ccc(Cl)cc2)c2nnn(C3CCCCC3)c12 | inactive: > 100 µM
